In patent publication US12583836B2 (Anaxis Pharma Pty Ltd, priority 2020, dated 2026):

What was measured:
[1] = test system: U937 human histiocytic leukemia cell line; test: Inhibition of TSQ induced necroptosis, 384 well plate format (CellTitre-Glo); details: Homo sapiens, U-937; U937 cells, TSQ cocktail (TNF, Smac mimetic, Q-VD-OPh), CelltiterGlo; read-out: Inhibition of TSQ-induced necroptosis (IC50 cell-based assay)
Method: […] ASSAY: Screening compounds for inhibition of TSQ induced necroptosis, 384 well plate format.
Cell Line ID: U937 human histiocytic leukemia cell line.
Cell Concentration (cells/well): Final cell density is 20000 cells per well.
Cell growth medium: HT-RPMI medium+7.4% Fetal Bovine Serum (FBS). Cells are cultured in Corning 150 cm^2 tissue culture flasks with vented caps at 37° C./5% CO2.
Incubation: Plates were incubated at 37° C./5% CO2 in a humidified incubator for 48 hours following addition of compounds and death stimuli (TSQ cocktail).
Compound concentration: 36 μM starting concentration, 1:3 dilution, 10 point
DMSO final concentration (% v/v): 0.3%.
Compounds in TSQ cocktail (T: TNF; S: Smac mimetic; Q: Q-VD-OPh) and their final concentrations:
hTNF-Fc (100 ng/ml)—produced by standard procedures as shown in Bossen et al., J Biol Chem, 2006, 281(20), 13964-13971.
Compound A (500 nM)—Smac mimetic, Tetralogic and SYNthesis med chem
Q-VD-OPh (10 μM)—MP Biomedicals
The cellular assay was carried out according to the following steps: • 1. Each well was prepared by sequential addition of: • a. DMSO (control; columns 1-2 and 23-24) or compound in DMSO—addition was performed using acoustic transfer of nl volumes of stock compound to give final test concentrations of 36, 12, 4, 1.3, 0.44, 0.148, 0.049, 0.016, 0.005 and 0.002 μM. All wells were backfilled with DMSO to a final total volume in the well of 100 nl. • b. Following compound/DMSO addition in step (a), 40 μL of cell suspension (5×10^5 cells/mL) was added to provide a final cell concentration of 20,000 cells per well, and • c. Following cell addition in step (b), 10 μL of 5×TSQ cocktail (except to positive controls; columns 1 and 23) was added to each well. • 2. After 48 hours, plate was removed from the 37° C. incubator and equilibrated to room temperature for 45 minutes. • 3. 15 μL of room temperature CellTitre-Glo2™ (Promega™) was added to each well. • 4. Shook plates for 2 minutes (˜600 rpm) and incubated at room temperature for 15 minutes to allow signal to stabilise. • 5. Read luminescence readout on a plate reader. Analysis:
Percent viability was calculated for each compound according to equation (2):
[formula] • wherein • RawData is the readout of any cell containing a compound of the invention • TA is the total activity provided by the luminescence readout from DMSO only wells (columns 2 and 24)=100% viability • NSA is the non-specific activity provided by DMSO+TSQ wells (columns 1 and 23)=0% viability
Curve fitting: 10-point titration curves are fitted with the 4-parameter logistic nonlinear regression model and the IC50 reported is the inflection point of the curve.
Analysis: Data was loaded into Dotmatics™ and visualised using the Tibco® Spotfire™ software. 10 points titration curves were fitted with the 4-parameter logistic nonlinear regression model and the IC50 reported reflect the inflection point of the curve for curve fitting.
Assay involving the TSQ cocktail (T: TNF; S: Smac mimetic; Q: Q-VD-OPh): TSQ treatment ensures that cells specifically undergo necroptotic cell death. TNF activates the TNF receptor, Smac mimetic directs the signal away from proinflammatory signaling and toward the RIP1/RIP3-mediated cell death pathways, and Q-VD-OPh ensures that the apoptotic response is blocked leaving only the programmed necrosis response. The compounds' activity (solution in DMSO) tested in this TSQ-induced assay was evaluated by determining the number of viable cells in culture by measuring the amount of ATP present as measured by CelltiterGlo.

U937 cells = test: Counter screen: cell viability without the TSQ cocktail (CelltiterGlo); design: species or system human; details: Homo sapiens, U-937, cell viability by CelltiterGlo, read-out: Off-target effect (IC50 cell-based assay)
Method: Counter screen: In parallel, all compounds were tested for their ability to affect cell viability. The same U937 cells were treated with compound in DMSO without the TSQ cocktail. This counter screen enabled evaluation of off-target effects. In this case, cell viability was measured by CelltiterGlo.

C[C@H](Oc1cc(-c2n[nH]c(Nc3cc(C4(C(F)(F)F)CC4)on3)c2C(N)=O)ccc1NS(=O)(=O)C(F)F)c1ccc(F)cc1 [Compound 289, (S)-3-(4-((difluoromethyl)sulfonamido)-3-(1-(4-fluorophenyl)ethoxy)phenyl)-5-((5-(1-(trifluoromethyl)cyclopropyl)isoxazol-3-yl)amino)-1H-pyrazole-4-carboxamide]
IC50 [1]: < 0.01 µM | IC50 (U937 cells): > 30 µM

Cc1cnc(Nc2[nH]nc(-c3ccc(NS(=O)(=O)C(F)F)c(OC4(c5ccc(F)cc5)CC4)c3)c2C(N)=O)cn1 [Compound 290, 3-(4-((difluoromethyl)sulfonamido)-3-(1-(4-fluorophenyl)cyclopropoxy)phenyl)-5-((5-methylpyrazin-2-yl)amino)-1H-pyrazole-4-carboxamide]
IC50 [1]: 0.01 to 1 µM | IC50 (U937 cells): > 30 µM

C[C@H](Oc1cc(-c2n[nH]c(Nc3cc(C4(C)COC4)on3)c2C(N)=O)ccc1NS(=O)(=O)C(F)F)c1ccc(F)cc1 [Compound 292, (S)-3-(4-((difluoromethyl)sulfonamido)-3-(1-(4-fluorophenyl)ethoxy)phenyl)-5-((5-(3-methyloxetan-3-yl)isoxazol-3-yl)amino)-1H-pyrazole-4-carboxamide]
IC50 [1]: 0.01 to 1 µM | IC50 (U937 cells): > 30 µM

COc1cc(Nc2[nH]nc(-c3ccc(NS(=O)(=O)C(F)F)c(O[C@@H](C)c4ccc(F)cc4)c3)c2C(N)=O)nn1C [Compound 294, (S)-3-(4-((difluoromethyl)sulfonamido)-3-(1-(4-fluorophenyl)ethoxy)phenyl)-5-((5-methoxy-1-methyl-1H-pyrazol-3-yl)amino)-1H-pyrazole-4-carboxamide]
IC50 [1]: 1 to 30 µM | IC50 (U937 cells): > 30 µM

C[C@H](Oc1cc(-c2n[nH]c(Nc3cc(C(C)(C)C)no3)c2C(N)=O)ccc1NS(=O)(=O)C(F)F)c1ccc(F)cc1 [Compound 295, (S)-5-((3-(tert-butyl)isoxazol-5-yl)amino)-3-(4-((difluoromethyl)sulfonamido)-3-(1-(4-fluorophenyl)ethoxy)phenyl)-1H-pyrazole-4-carboxamide]
IC50 [1]: 0.01 to 1 µM | IC50 (U937 cells): > 30 µM

C[C@H](Oc1cc(-c2n[nH]c(Nc3cnc(C4CCOCC4)cn3)c2C(N)=O)ccc1NS(=O)(=O)C(F)F)c1ccc(F)cc1 [Compound 296, (S)-3-(4-((difluoromethyl)sulfonamido)-3-(1-(4-fluorophenyl)ethoxy)phenyl)-5-((5-(tetrahydro-2H-pyran-4-yl)pyrazin-2-yl)amino)-1H-pyrazole-4-carboxamide]
IC50 [1]: < 0.01 µM | IC50 (U937 cells): > 30 µM

Cc1cc(Nc2[nH]nc(-c3ccc(NS(=O)(=O)C(F)F)c(O[C@@H](C)c4ccc(F)cc4)c3)c2C(N)=O)on1 [Compound 302, (S)-3-(4-((difluoromethyl)sulfonamido)-3-(1-(4-fluorophenyl)ethoxy)phenyl)-5-((3-methylisoxazol-5-yl)amino)-1H-pyrazole-4-carboxamide]
IC50 [1]: 0.01 to 1 µM | IC50 (U937 cells): > 30 µM

C[C@H](Oc1cc(-c2n[nH]c(Nc3cc(C4CCOC4)on3)c2C(N)=O)ccc1NS(=O)(=O)C(F)F)c1ccc(F)cc1 (stereo partly drawn) [Compound 305, 3-(4-((difluoromethyl)sulfonamido)-3-((S)-1-(4-fluorophenyl)ethoxy)phenyl)-5-((5-(tetrahydrofuran-3-yl)isoxazol-3-yl)amino)-1H-pyrazole-4-carboxamide]
IC50 [1]: 0.01 to 1 µM | IC50 (U937 cells): > 30 µM

NC(=O)c1c(-c2ccc(NS(=O)(=O)C(F)F)c(OC3(c4ccc(F)cc4)CC3)c2)n[nH]c1Nc1cnccn1 [Compound 307, 3-(4-((difluoromethyl)sulfonamido)-3-(1-(4-fluorophenyl)cyclopropoxy)phenyl)-5-(pyrazin-2-ylamino)-1H-pyrazole-4-carboxamide]
IC50 [1]: 0.01 to 1 µM | IC50 (U937 cells): > 30 µM

Cc1cc(Nc2[nH]nc(-c3ccc(NS(=O)(=O)CC(F)(F)F)c(O[C@@H](C)c4ccc(F)cc4)c3)c2C(N)=O)no1 [Compound 311, (S)-3-(3-(1-(4-fluorophenyl)ethoxy)-4-((2,2,2-trifluoroethyl)sulfonamido)phenyl)-5-((5-methylisoxazol-3-yl)amino)-1H-pyrazole-4-carboxamide]
IC50 [1]: 1 to 30 µM | IC50 (U937 cells): > 30 µM

C[C@H](Oc1cc(-c2n[nH]c(Nc3cnc(C(C)(C)C)cn3)c2C(N)=O)ccc1NS(=O)(=O)C(F)F)c1ccc(F)cc1 [Compound 312, (S)-5-((5-(tert-butyl)pyrazin-2-yl)amino)-3-(4-((difluoromethyl)sulfonamido)-3-(1-(4-fluorophenyl)ethoxy)phenyl)-1H-pyrazole-4-carboxamide]
IC50 [1]: < 0.01 µM | IC50 (U937 cells): > 30 µM

C[C@H](Oc1cc(-c2n[nH]c(Nc3cnc(C4CC4)cn3)c2C(N)=O)ccc1NS(=O)(=O)C(F)F)c1ccc(F)cc1 [Compound 316, (S)-5-((5-cyclopropylpyrazin-2-yl)amino)-3-(4-((difluoromethyl)sulfonamido)-3-(1-(4-fluorophenyl)ethoxy)phenyl)-1H-pyrazole-4-carboxamide]
IC50 [1]: < 0.01 µM | IC50 (U937 cells): > 30 µM

CCS(=O)(=O)Nc1ccc(-c2n[nH]c(Nc3cc(C)on3)c2C(N)=O)cc1O[C@@H](C)c1ccc(F)cc1 [Compound 317, (S)-3-(4-(ethylsulfonamido)-3-(1-(4-fluorophenyl)ethoxy)phenyl)-5-((5-methylisoxazol-3-yl)amino)-1H-pyrazole-4-carboxamide]
IC50 [1]: 0.01 to 1 µM | IC50 (U937 cells): 1 to 30 µM

C[C@H](Oc1cc(-c2n[nH]c(Nc3cc4n(n3)CCCN(C)C4)c2C(N)=O)ccc1NS(=O)(=O)C(F)F)c1ccc(F)cc1 [Compound 318, (S)-3-(4-((difluoromethyl)sulfonamido)-3-(1-(4-fluorophenyl)ethoxy)phenyl)-5-((5-methyl-5,6,7,8-tetrahydro-4H-pyrazolo[1,5-a][1,4]diazepin-2-yl)amino)-1H-pyrazole-4-carboxamide]
IC50 [1]: < 0.01 µM | IC50 (U937 cells): > 30 µM

COCC(Oc1cc(-c2n[nH]c(Nc3cnccn3)c2C(N)=O)ccc1NS(=O)(=O)C(F)F)c1ccc(F)cc1 (centres unmarked) [Compound 319, 3-(4-((difluoromethyl)sulfonamido)-3-(1-(4-fluorophenyl)-2-methoxyethoxy)phenyl)-5-(pyrazin-2-ylamino)-1H-pyrazole-4-carboxamide]
IC50 [1]: 0.01 to 1 µM | IC50 (U937 cells): > 30 µM

Cc1cc(Nc2c(C(N)=O)c(-c3ccc(NS(=O)(=O)C(F)F)c(O[C@@H](C)c4ccc(F)cc4)c3)nn2C)no1 [Compound 320, (S)-3-(4-((difluoromethyl)sulfonamido)-3-(1-(4-fluorophenyl)ethoxy)phenyl)-1-methyl-5-((5-methylisoxazol-3-yl)amino)-1H-pyrazole-4-carboxamide]
IC50 [1]: < 0.01 µM | IC50 (U937 cells): > 30 µM
